From PubChem BioAssay AID540267 (National Center for Advancing Translational Sciences (NCATS), 2011)
Values joined by “and” are separate entries in the source; they are usually repeats but may differ in a detail not shown here. Equal entries are not always repeated. Among all 340,000 compounds or so, about 530 (0.16%) were called active. Inconclusive results, whose numbers are uncertain, are shown with a selection of clear calls. Cut-off read from the data, not from the text of the source: active = activity change below about -80%; inconclusive = between about -30% and that limit; inactive = weaker than that.

Assay: Small Molecules that selectively kill Giardia lamblia: qHTS;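 note: parasites exposed to compound for two days anaerobically before the ATP read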
Settings: Giardia lamblia trophozoite viability; at 7.66 µM; active compounds read low
How it was run: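 ATP-content bioluminescence gauges trophozoite survival. Cells (100/well) receive compound and incubate anaerobically for 48 hrs at 37 deg C; detection reagent follows for 15-30 min at room temperature.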
% is set by controls: 0 for no effect and ±100 for the full control effect.

SMILES | activity change
O=C(C[C@H]1C/C=C\CC[C@@H](Cc2ccc(F)cc2)C(=O)OC[C@H]2CCCN2C1=O)N[C@@H](CO)Cc1ccccc1 | inconclusive: -31.9% [inhibitor]
O=C(Oc1ccc(-c2nc(-c3ccccn3)no2)cc1)c1ccccc1 | inconclusive: -35.4% [inhibitor]
COc1cc(-c2cc(=O)c3ccccc3o2)ccc1O | inconclusive: -30.5% [inhibitor]
Cc1ccc2cc(/C=N/Nc3nc4ccccc4[nH]3)c(Cl)nc2c1 | inconclusive: -70.3% [inhibitor]
NC[C@H]1O[C@H](O[C@H]2[C@H](O)[C@@H](O[C@H]3O[C@H](CO)[C@@H](O)[C@H](N)[C@H]3O)[C@H](N)C[C@@H]2N)[C@H](N)C[C@@H]1O | inconclusive: -32.8% [inhibitor]
COc1cc2c3nc4n(c(=O)c3n(CC(=O)N3CCCC3)c2cc1OC)CCS4 | inconclusive: -35% [inhibitor]
O=C(c1cc(S(=O)(=O)N2CCC3(CC2)OCCO3)ccc1F)N1CCCCC1 | inactive: 1.33%
CCc1nc2cc([N+](=O)[O-])c([N+](=O)[O-])cc2[nH]1 | inconclusive: -54.1% [inhibitor]
NC(=S)N/N=C1\c2ccccc2-c2c(C(=O)O)cccc21 | inconclusive: -54.1% [inhibitor]
CCc1ccccc1NC(=O)CC(NCc1ccccc1)C(=O)O (configuration not stated) | inconclusive: -45.2% [inhibitor]
CCOc1ccc2nc(NC(=O)c3ccccn3)sc2c1 | inconclusive: -47.8% [inhibitor]
Nc1nc(Nc2ccccc2F)nc(N2CCCC2)c1[N+](=O)[O-] | inconclusive: -31.5% [inhibitor]
C=CCNC(=O)O/N=C/c1csc([N+](=O)[O-])c1 | inconclusive: -65.4% [inhibitor]
CCCC(=O)Nc1ccc(C2C(=O)c3ccccc3C2=O)cc1 | inconclusive: -73.7% [inhibitor]
Cn1c(C(=O)NCCCN2CCc3ccccc3C2)cc2c(=O)n(C)c3ccccc3c21 | inconclusive: -31.9% [inhibitor]
COc1ccc(N(CC(=O)Nc2cc(C)ccc2C)S(=O)(=O)c2c(C)nn(C)c2C)cc1 | inconclusive: -38.7% [inhibitor]
COc1cc(/C=C(\NC(=O)c2ccccc2)C(=O)NCCO)c([N+](=O)[O-])cc1OC | inconclusive: -60.5% [inhibitor]
COCCN1CSC(=S)N(Cc2ccco2)C1 | inconclusive: -31.8% [inhibitor]
O=C(CSc1ccccc1C(=O)O)c1ccc(Cl)cc1 | inactive: -0.646%
O=C(COC(=O)CNC(=O)c1ccc([N+](=O)[O-])o1)Nc1ncc(C(F)(F)F)cc1Cl | inconclusive: -46.1% [inhibitor]
CCOC(=O)c1cc(C(C)(C)C)oc1CN | inactive: -9.78%
CCCN(CCC)C(=O)c1cn(CC)c2ccc(S(=O)(=O)N3CCCCC3)cc2c1=O | inconclusive: -43.6% [inhibitor]
COc1ccc(CCNC(=O)c2ccc(-c3ccc([N+](=O)[O-])cc3Cl)o2)cc1OC | inconclusive: -39.1% [inhibitor]
O=C(O)c1ccccc1OCCOc1ccccc1C(=O)O | inactive: -6.83%

SMILES | activity change
O=C(COc1ccccc1)NCC(c1ccco1)N1CCN(c2ccc(F)cc2)CC1 (configuration not stated) | inconclusive: -30.1% [inhibitor]
CCC/C(=N\NC(=O)c1csc(C)c1C)c1cccs1 | inactive: -11.4%
O=C(/C=C/Nc1ccccc1F)c1cccs1 | inconclusive: -42.6% [inhibitor]
CN(C)/C=C/C(=O)c1ccn(S(=O)(=O)c2ccccc2)c1 | inconclusive: -31.2% [inhibitor]
O=C(c1cc(O)c(O)c([N+](=O)[O-])c1)c1ccccc1F | inactive: -20.3%
O=C1c2ccccc2NC(c2ccccc2Cl)N1N=C1CCCCCC1 (configuration not stated) | inconclusive: -33.9% [inhibitor]
COc1ccccc1CC(=O)NCc1nn(-c2ccccc2)nc1C | inconclusive: -31.7% [inhibitor]
O=C(Nc1ccccc1N1CCCCC1)c1ccc([N+](=O)[O-])o1 | inconclusive: -37.4% [inhibitor]
Nc1ncnc(Nc2ccc(F)c(Cl)c2)n1 | inconclusive: -33.6% [inhibitor]
CC/C(=N\NC(=O)c1cc(C2CC2)[nH]n1)c1ccccc1 | inconclusive: -34.9% [inhibitor]
O=C(NC1CC1)C1=C[C@H](C2CC2)C[C@H](OCCCCO)O1 | inconclusive: -32.7% [inhibitor]
CSCCC(NC(=O)COc1ccccc1)C(=O)N(C)Cc1ccc(SC)cc1 (configuration not stated) | inconclusive: -35.4% [inhibitor]
CCn1cnc2cc(NC(=O)c3ccc(C)cc3)ccc21 | inconclusive: -32% [inhibitor]
CCCc1nc(-c2cc3ccccc3[nH]c2=O)no1 | inconclusive: -34.4% [inhibitor]
CCCCOC(=O)C1[C@H]2C(=O)N(Cc3cccs3)C[C@]23C=C[C@H]1O3 (some centres not stated) | inactive: -9.44%
CCc1cc2c(Nc3ccc(O)cc3)nc(C)nc2s1 | inactive: 3.13%
Cc1oc2c(c1C(=O)NCc1cccnc1)C(=O)c1ccccc1C2=O | active: -85.6%
O=[N+]([O-])c1ccc(CN2CCCCCC2)s1 | inconclusive: -39.8% [inhibitor]
CCOc1ccc(NC(=S)NCc2nc3ccccc3[nH]2)cc1 | inconclusive: -34.9% [inhibitor]
C/C=C/C=C/C(=O)[C@@H]1[C@@H]([C@]2(C)OC(=O)C(C)=C2O)[C@H]2/C(=C(O)/C=C/C=C/C)C(=O)[C@]1(C)C(=O)C2(C)O (some centres not stated) | inconclusive: -32.4% [inhibitor]
CNc1nc(SC)nc2ccccc12 | inactive: 15.3%
O=C(Nc1nc2ccccc2[nH]1)c1cccc(Cl)c1 | inconclusive: -36.7% [inhibitor]
O=C(COc1cccnc1[N+](=O)[O-])Nc1cccc2ccccc12 | inconclusive: -63.4% [inhibitor]
O=C(Cc1nc2ccccc2[nH]1)NCc1ccco1 | inconclusive: -33.9% [inhibitor]

SMILES | activity change
O=C(O)C(c1ccccc1)C1CCCCC1O (configuration not stated) | inactive: -7.99%
Cc1cccc(C2c3[nH]c4ccccc4c3CCN2C(=O)c2cc(CC(C)C)[nH]c(=O)n2)n1 (configuration not stated) | inactive: 12.1%
CC1CCCCC1NC(=O)CSc1ccsc1[N+](=O)[O-] (configuration not stated) | inconclusive: -69.9% [inhibitor]
O=[N+]([O-])c1ccc(C=NN2CCCCCC2)cc1 | inactive: 18%
CC(=O)Nc1cccc(C(=O)/C=C/c2ccc(N(C)C)cc2)c1 | inactive: 3.46%
O=S1(=O)N=C(Nc2nc3c(s2)CCCC3)c2ccccc21 | inconclusive: -59.3% [inhibitor]
CN(C(=O)c1cccc(NC(=O)Cc2cccc([N+](=O)[O-])c2)c1)C1CCCC1 | inactive: 1.12%
COc1ccc(OC)c(NC(=O)C2CCN(Cc3cnn(-c4ccccc4)c3-n3cccc3)CC2)c1 | inactive: -15.5%
Cc1ccc(-n2nnnc2CNC(=O)c2ccc([N+](=O)[O-])o2)cc1C | inconclusive: -77.9% [inhibitor]
CC(=O)N(C1=C(O)c2ccccc2C(=O)C1=O)C1CCCCC1 | inconclusive: -31.4% [inhibitor]
Cc1nc2c(ccc3nc(NC(=O)c4ccc5c(c4)OCCO5)sc32)s1 | inconclusive: -54.2% [inhibitor] and inconclusive: -60.8% [inhibitor]
COC(=O)c1c(C)nc2ccccc2c1-c1ccccc1 | inactive: 2.87%
O=[N+]([O-])c1ccc(C2NS(=O)(=O)N=C3CCCCCN32)cc1 (configuration not stated) | inconclusive: -41.4% [inhibitor]
Cc1ccc(C(=O)COC(=O)c2cccc(NC(=O)c3ccc([N+](=O)[O-])cc3[N+](=O)[O-])c2)cc1 | active: -101%
O=C(COc1nnc2ccccn12)N1CCN(S(=O)(=O)c2ccccc2)CC1 | inconclusive: -41.8% [inhibitor]
CN(CC(O)COc1ccccc1F)C1CCCCC1 (configuration not stated) | inactive: -8.49%
O=[N+]([O-])c1cccc(/C=N/N2CCN(Cc3ccccc3)CC2)c1 | inconclusive: -30.3% [inhibitor]
Cc1c(CCC(=O)NCCCCCC(=O)O)c(=O)oc2cc3occ(-c4ccccc4)c3cc12 | inconclusive: -31.4% [inhibitor]
Cc1ccc(-c2csc(NC(=O)CSc3nnc4c(n3)[nH]c3ccccc34)n2)cc1 | inactive: -2.15%
Cc1ccc(-c2n[nH]c3c2C(c2ccccc2)N(c2ccc(C(=O)O)cc2)C3=O)cc1 (configuration not stated) | inactive: -8.27%
O=C(Nc1ccc(-n2cnnn2)cc1)c1cccc(S(=O)(=O)N2CCCC2)c1 | inactive: -16.3%
COc1ccccc1Nc1cc(C)nc2c(C)ccc([N+](=O)[O-])c12 | inconclusive: -64.7% [inhibitor]
CCc1cc(=O)oc2cc(C)cc(OCC(=O)NCc3cccnc3)c12 | inconclusive: -32.7% [inhibitor]
O=C(NCc1nc2ccccc2[nH]1)C1=C[C@@H](C2CCCCC2)C[C@@H](OCc2ccc(CO)cc2)O1 | inconclusive: -32.9% [inhibitor]
